Measurements as given in US20230405119A1 (CITY OF HOPE, published 2023).

T1: immobilized recombinant IL13Rα1 (UniProt P78552 22-343, limits assumed)
T1 construct: also called IL13Ra1
T1 sequence (looked up): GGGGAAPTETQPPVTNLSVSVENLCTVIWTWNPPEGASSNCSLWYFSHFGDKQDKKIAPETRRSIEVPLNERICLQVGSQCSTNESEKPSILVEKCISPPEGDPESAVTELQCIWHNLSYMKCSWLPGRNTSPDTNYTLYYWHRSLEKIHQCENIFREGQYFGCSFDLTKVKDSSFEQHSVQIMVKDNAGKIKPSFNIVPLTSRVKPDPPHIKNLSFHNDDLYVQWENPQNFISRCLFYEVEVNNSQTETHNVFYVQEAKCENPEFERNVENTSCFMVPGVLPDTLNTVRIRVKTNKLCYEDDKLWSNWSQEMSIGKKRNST

T2: immobilized IL13Rα2 (UniProt Q14627 27-343, limits assumed)
T2 construct: also called IL13Ra2
T2 sequence (looked up): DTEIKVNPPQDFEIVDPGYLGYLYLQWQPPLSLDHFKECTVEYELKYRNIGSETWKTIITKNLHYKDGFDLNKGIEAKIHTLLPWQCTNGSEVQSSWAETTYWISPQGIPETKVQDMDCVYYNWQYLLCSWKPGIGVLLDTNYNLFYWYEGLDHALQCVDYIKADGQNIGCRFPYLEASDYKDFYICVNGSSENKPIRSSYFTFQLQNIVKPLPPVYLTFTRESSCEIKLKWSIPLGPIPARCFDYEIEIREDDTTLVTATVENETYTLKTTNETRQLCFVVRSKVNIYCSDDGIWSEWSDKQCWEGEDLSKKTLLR

B1: wild-type IL13 (ligand)
chain: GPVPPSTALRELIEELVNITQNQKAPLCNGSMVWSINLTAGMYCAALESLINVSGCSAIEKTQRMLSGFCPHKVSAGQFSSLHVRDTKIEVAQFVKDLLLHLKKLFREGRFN
notes: the display scaffold is not described; also called WT; WT IL13
B2: IL13 variant R107K (ligand)
chain: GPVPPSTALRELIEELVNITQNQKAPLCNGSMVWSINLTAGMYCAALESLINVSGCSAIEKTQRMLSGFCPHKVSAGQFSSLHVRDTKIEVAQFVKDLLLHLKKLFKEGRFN
notes: display scaffold not described
B3: IL13 variant E11R (ligand)
chain: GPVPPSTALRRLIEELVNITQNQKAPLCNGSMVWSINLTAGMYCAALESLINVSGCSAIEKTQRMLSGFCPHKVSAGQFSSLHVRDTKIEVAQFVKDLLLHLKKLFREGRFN
notes: as for B2
B4: IL13 variant E90L (ligand)
chain: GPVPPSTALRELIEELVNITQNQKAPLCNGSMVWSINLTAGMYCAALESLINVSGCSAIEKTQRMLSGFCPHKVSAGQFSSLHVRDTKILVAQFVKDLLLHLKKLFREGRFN
notes: as for B2
B5: IL13 E11Y mutant (ligand)
chain: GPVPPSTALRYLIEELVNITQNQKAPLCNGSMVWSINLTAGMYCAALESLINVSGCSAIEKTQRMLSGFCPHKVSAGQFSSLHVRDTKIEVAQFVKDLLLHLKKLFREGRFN
notes: Previously known mutant; display scaffold not described

What follows are binders tested against T1, immobilized recombinant IL13Rα1 (assay: yeast-displayed IL13; surface plasmon resonance with immobilized recombinant receptor, as the filing words it).
Excerpt: (§1) In an effort to identify IL13 variants with increased selectivity for binding IL13Rα2 relative to IL13Rα1. To assess receptor binding various mutants were compared to wild-type IL13 ([…] […]; SEQ ID NO: 1) and the previously known […] E11Y mutant ([…] […]; SEQ ID NO: 69). […] Surface plasmon resonance with immobilized recombinant IL13Rα1 and immobilized IL13Rα2 was used to assess binding affinity. As expected, WT bound strongly to both IL13Rα1 and IL13Rα2.

Kd	Binder
69 nM	B1
240 nM	B2
98 nM	B3

The binders below were run against T2, immobilized IL13Rα2 in the same assay as above.
Excerpt: as §1

Kd	Binder
18 nM	B1
27 nM	B4
27 nM	B2
19 nM	B5
15 nM	B3
